Consider 81 compounds from PubChem BioAssay AID1346428 (National Center for Advancing Translational Sciences (NCATS), 2018).

The structures appear in SMILES notation. Values joined by “and” are separate entries in the source; they are usually repeats but may differ in a detail not shown here. Identical values can stand only once. In all, about 48,000 compounds went through this assay and about 1,200 (2.5%) were called active. Another 2% or so got no clear call; they are omitted.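 How the source made its calls: active means activation of at least 60% and not above a set upper limit (about 1 call in 100 departs from these limits); inconclusive means activation of 40% to 60%, or above that upper limit; inactive means activation under 40%.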 The list shows a part of the results.

Chain of UniProt O75388 (O75388 whole entry, looked up): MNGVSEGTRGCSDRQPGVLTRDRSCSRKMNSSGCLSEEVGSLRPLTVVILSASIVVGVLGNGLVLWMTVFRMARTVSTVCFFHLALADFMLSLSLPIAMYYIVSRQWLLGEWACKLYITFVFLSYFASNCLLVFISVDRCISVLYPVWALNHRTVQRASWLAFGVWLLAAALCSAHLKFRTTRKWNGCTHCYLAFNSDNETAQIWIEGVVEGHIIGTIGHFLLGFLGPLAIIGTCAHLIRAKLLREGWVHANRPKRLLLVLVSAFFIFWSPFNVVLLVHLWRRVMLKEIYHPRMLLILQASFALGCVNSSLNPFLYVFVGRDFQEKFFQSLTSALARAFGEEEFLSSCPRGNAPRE

The assay concerns the target Probable G-protein coupled receptor 32 (Homo sapiens) (UniProt O75388). Description: qHTS for Agonists of Human Resolvin D1 Receptor DRV1. Further: 0% is about no effect. As to conditions: CHO-K1 GPR32 beta-arrestin PathHunter luminescence, 90 min; at 76.9 µM; hits give high values; zero percent set by DMSO-only wells. The gist of the method:
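Cells are plated overnight, treated with compounds in DMSO for 90 minutes at 37 °C, and developed with PathHunter detection reagent for 1 hour before luminescence is read; signal reflects beta-arrestin binding to GPR32 in engineered CHO-K1 cells.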
For the compound `Cc1cccc(-n2ncc(C(=O)N3CCN(c4ccc(Cl)cc4)CC3)c2C2CCN(C(=O)OC(C)(C)C)CC2)c1`, the activation is inactive: -19.2%.
Take `O=C1OC(C(=O)Nc2cccc(Br)c2)Cc2ccccc21` (stereo unspecified): the activation was inactive: -16%.
Then `Cn1nc(C(=O)NCc2ccc(Cl)cc2)c2c1-c1ccccc1S(=O)(=O)C2`, with inactive: -3.66%.
For the compound `Cc1ccc(OCc2nc(-c3ccc(C(=O)N4CCN(c5ccccc5F)CC4)cc3)oc2C)cc1`, the activation was inactive: -7.89%.
Then `COc1ccc(OC)c(CNC(=O)c2cc3c(-c4ccc(OC)c(OC)c4)nn(C)c3s2)c1`, with inactive: -4.81%; and `CCc1ccc2nc(N(CCN(CC)CC)C(=O)c3ccco3)sc2c1`, with inactive: 47.8%; and `Cc1ccc(NC(=O)c2ccc(-c3cccc(Cl)c3C)o2)cc1`, with inactive: -12.6%.
With `CCCCCn1c(=O)[nH]c2cc(C(=O)Nc3cc(C)cc(C)c3)ccc2c1=O`, the activation was inactive: 6.25%.
Then `CN(C)S(=O)(=O)N(CC(=O)NCCSCc1ccccc1)c1ccccc1`, with inactive: 12%.
The same measure for `Cc1ccc(C)c(NC(=O)CN2CCCN(Cc3cccc(Cl)c3)S2(=O)=O)c1`: inactive: -11.6%.
Then `COc1ccc(Cl)cc1NC(=O)c1cc(S(=O)(=O)NC2CCCCCC2)ccc1F`, with inactive: -31.8%; and `Cc1cccc(N2C(=O)N(CC(=O)C(C)(C)C)c3ccccc3S2(=O)=O)c1C`, with inactive: -19.1%; and `Cc1cc(OC(C)C(=O)Nc2c(C(=O)c3ccc(F)cc3)oc3ccccc23)ccc1Cl` (stereo unspecified), with inactive: 8.86%.
Regarding `Cc1cccc(NC(=O)CSc2cn(CC(=O)N3CCCCCC3)c3ccccc23)c1`, the activation is inactive: -12.8%.
Then `CCc1ccc(Sc2cc(C(=O)NCc3ccccc3OC)c3ccccc3n2)cc1`, with inactive: -1.33%; and `CCc1ccc(Sc2cc(C(=O)NCc3cccc(OC)c3)c3ccccc3n2)cc1`, with inactive: 5.63%; and `COc1ccc(C2NC(=O)N(C)C3=C2C(=O)N(c2cccc(Cl)c2)C3)cc1` (stereo unspecified), with inactive: -2.65%.
As for `CCOc1ccc(N2CC(NC(=O)C(=O)c3c[nH]c4ccccc34)CC2=O)cc1` (stereo unspecified), the activation is inactive: 10.9%.
Then `CCn1c(=O)cc(SCC(=O)NCc2ccc(F)cc2Cl)c2ccccc21`, with inactive: 12.6%; and `COC(=O)c1ccc(OCC2c3cc(OC)c(OC)cc3CCN2C(=O)Cc2ccc(OC)cc2)cc1` (stereo unspecified), with inactive: -12.7%; and `Cc1c(Cl)cccc1NC(=O)c1cccc(NC(=O)N2CCSc3ncccc32)c1`, with inactive: 6.65%.
For the compound `CC(NC(=O)c1ccc2c(c1)CCN2S(C)(=O)=O)c1ccccc1` (stereo unspecified), the activation was inactive: 8.23%.
The same measure for `CCOc1ccc(NC(=O)CSC2=Nc3ccccc3C3=NC(CCC(=O)NCc4ccccc4)C(=O)N23)cc1` (stereo unspecified): inactive: -9.62%; for `Cc1ccc(CNC(=O)c2ccc3c(c2)nc(C)n3-c2cccc(F)c2)cc1`: inactive: -29%; for `CCCCOc1ccc(-c2nn(-c3ccccc3)cc2C2NC(=O)NC(C)=C2C(=O)OCC)cc1` (stereo unspecified): inactive: 27.8%.
As for `Cc1cc2oc(C(=O)Nc3ccc(S(N)(=O)=O)cc3)cc(=O)c2cc1C`, the activation was inactive: -5.76%.
The same measure for `O=C(c1cc2ccccc2oc1=O)N1CCN(c2ccc(Cl)cc2)CC1`: inactive: 26.1%.
Take `O=C(NCCc1ccccc1)c1cnc2sc(N3CCCCCC3)nn2c1=O`: the activation is inactive: 0.483%.
Then `COc1ccc(OCC(=O)NCc2ccc3c(c2)CCN3C(=O)c2ccccc2)cc1`, with inactive: -6.44%.
Then `CCc1ccc(C(=O)c2cn(CC(=O)Nc3cccc(OC)c3)c3ccc(OC)cc3c2=O)cc1`, with inactive: 1.31%.
Then `Cc1ccc(C(=O)N2c3ccc(C)cc3C(C)(c3ccccc3)CC2(C)C)cc1` (stereo unspecified), with inactive: -40.4%; and `CCc1cccc(NC(=O)CN2C(=O)COc3ccc(S(=O)(=O)Nc4ccccc4)cc32)c1`, with inactive: 23.5%.
In the case of `CCOC(=O)c1ccc(N2C(=O)c3[nH]nc(-c4ccc(C)cc4)c3C2c2cccc(F)c2)cc1` (stereo unspecified), the activation was inactive: -5.06%.
The same measure for `COC(=O)c1ccccc1NC(=O)CSc1nc2ccccc2nc1Cc1ccccc1OC`: inactive: 9.45%.
Then `CCOC(=O)c1c(-c2ccc(Br)cc2)csc1NC(=O)c1ccc(F)cc1`, with inactive: -4.23%.
Then `CC(C)OCCCNC(=O)c1ccc2c(c1)NC(=O)c1ccccc1S2`, with inactive: 9.51%.
As to `O=C(Nc1cc(-c2nc3ccccc3o2)ccc1Cl)c1ccc(N2CCCCC2)c([N+](=O)[O-])c1`, the activation was inactive: -1.73%.
The same measure for `O=C(CCS(=O)(=O)c1cc(Br)cc2c1N(C(=O)C1CC1)CC2)NCc1ccc(Cl)cc1`: inactive: -5.78%; for `CN(C(=O)c1cc2nc(-c3ccco3)cc(C(F)(F)F)n2n1)c1ccc(OC(F)(F)Cl)cc1`: inactive: -4.98%.
On to `CCn1c(=O)sc2cc(NS(=O)(=O)c3ccc(F)c(C)c3)ccc21`, for which the activation is inactive: 18.4%.
`Cc1ccc(CSc2cn(CC(=O)N3CCCC3)c3ccccc23)cc1`: the activation was inactive: -5.45%.
The same measure for `CCN(Cc1ccncc1)C(=O)C(CO)c1ccccc1` (stereo unspecified): inactive: -6.41% and inactive: -6.37%; for `Cc1ccc(NC(=O)Cn2cc(S(=O)(=O)c3ccc(C)cc3)c(=O)c3cc4c(cc32)OCO4)cc1`: inactive: -0.379%.
The same measure for `Cc1ccc(-c2nc(SCCOc3ccccc3C)n3[nH]c(=O)cc3n2)cc1`: inactive: -43.5%; for `COc1ccc(CCN2CCC(Nc3nc4ccccc4n3Cc3ccc(F)cc3)CC2)cc1`: active: 94.6%.
On to `COc1ccc(C2c3c(n(C)c4ccccc34)C(=O)N2CC(=O)Nc2ccc(C)c(Cl)c2)cc1` (stereo unspecified), for which the activation is inactive: -23.8%.
Then `CCOC(=O)C1CCN(c2nc3c(S(=O)(=O)c4ccccc4)nnn3c3ccsc23)CC1`, with inactive: -37.2%; and `Nc1nc(SCc2ccc([N+](=O)[O-])cc2)c2ncn([C@@H]3O[C@H](CO)[C@@H](O)[C@H]3O)c2n1`, with inactive: 5.72%; and `CCc1ccccc1N(CC)C(=O)c1c(C)oc2ncnc(N3CCOCC3)c12`, with inactive: -10.6%.
The same measure for `O=c1c2oc3ccccc3c2n(Cc2ccc(Cl)cc2)c(=O)n1Cc1ccco1`: inactive: -4.78%; for `O=C1COc2cc(S(=O)(=O)NCc3ccco3)c(Cl)cc2N1`: inactive: -3.73%; for `CC1=C(c2ccc(C)c(C)c2)S(=O)(=O)N=C1N1CCC(C(=O)N2CCC(C(N)=O)CC2)CC1`: inactive: -5.98%.
The same measure for `COc1ccc(NC(=O)Nc2nnc(C)s2)cc1`: inactive: -11.5%; for `Cc1ccccc1C(=O)Nc1ccc(OCc2cc(=O)n3cccc(C)c3n2)cc1`: inactive: -5.12%; for `CCN(C(=O)C1CCC(CNS(=O)(=O)c2cccc3nsnc23)CC1)c1ccc(C)c(C)c1` (stereo unspecified): inactive: -17%.
With `CC(Sc1nc(=O)cc(N)n1CCc1ccccc1)C(=O)Nc1ccc(Cl)cc1` (stereo unspecified), the activation is inactive: -13.4%.
Then `Cc1cccc(CN2CCC(CNC(=O)c3c(C)oc4ncnc(N5CCCCC5)c34)CC2)c1`, with inactive: -1.87%; and `COc1ccc(CNC(=O)c2ccc(N3CCCC3)c(NC(=O)NCc3ccc(C)cc3)c2)cc1`, with inactive: -24.7%; and `Cc1nn2c(-c3cccc(NC(=O)c4ccccc4)c3)nnc2c2ccccc12`, with inactive: 14.7%.
Turning to `COc1ccc(-c2cn3c(n2)sc2cc(C(=O)Nc4ccc(C)c(C)c4)ccc23)cc1`, the activation is inactive: 1.83%.
Take `Cc1cccc(N2CCN(C(=O)CCc3nnc4n(CC(C)C)c(=O)c5ccccc5n34)CC2)c1C`: the activation is inactive: -2.98%.
The same measure for `COc1ccc(-c2cc(C)no2)cc1S(=O)(=O)N1CCOc2ccccc21`: inactive: -24.2%.
On to `O=C(Cc1ccccc1)N(Cc1cccnc1)c1nc2c(F)cc(F)cc2s1`, for which the activation is inactive: -16.2%.
Then `O=C(Nc1cc(Cl)cc(Cl)c1)c1ccc(F)c(S(=O)(=O)N2CCc3ccccc32)c1`, with inactive: -5.85%; and `COc1ccc(CCNC(=O)c2ccc3c(c2)N(Cc2c(F)cccc2Cl)C(=O)CS3)cc1OC`, with inactive: -18.9%; and `O=C(Nc1ccc(F)cc1)c1oc2ccccc2c1NC(=O)C12CC3CC(CC(C3)C1)C2`, with inactive: -2.51%.
Then `Cc1cccc(OC(=O)CSc2nnc(CNC(=O)c3ccccc3)o2)c1C`, with inactive: -8.88%; and `CCc1ccccc1NC(=O)CN(Cc1ccccc1)S(=O)(=O)c1ccc(Br)cc1`, with inactive: -1.75%.
Regarding `CC(C)c1ccc(OCC(=O)NC(Cc2c[nH]c3ccccc23)C(=O)O)cc1` (stereo unspecified), the activation was inactive: 8.31%.
As to `CCOC(=O)c1c(C)oc2ccc(N(C(=O)Oc3ccccc3)S(=O)(=O)c3ccc(CC)cc3)cc12`, the activation was inactive: -14.5%.
Then `COc1cccc(NC(=O)CSC2=Nc3ccccc3C3=NC(CC(=O)NC4CCCCC4)C(=O)N23)c1` (stereo unspecified), with inactive: -21.9%.
Then `CCOC(=O)c1c(C)[nH]c(C)c1S(=O)(=O)N1CCC(C(=O)N2CCN(c3ccccc3F)CC2)CC1`, with inactive: -7.26%; and `COc1ccc(NC(=O)C(C)n2nc(-c3ccc(C)c(C)c3)ccc2=O)cc1OC` (stereo unspecified), with inactive: -6.46%.
Then `CCc1nnc(SCc2cc(C)ccc2C)c2cc3sc(C)cc3n12`, with inactive: -18.1%.
Consider `Cc1ccc2c(c1)-c1cc(C)nn1C(c1cc(Br)ccc1O)N2` (stereo unspecified), for which the activation is inactive: -17.3%.
The same measure for `COc1cc(OC)c(OC)cc1/C=C/c1nc2cc3ccccc3cc2c(=O)n1-c1ccc(F)cc1F`: inactive: -5.77%.
Then `COc1ccc(C2CC(=O)c3cc(-c4nc(-c5ccc(Cl)cc5)c(C)s4)c(=O)[nH]c3C2)cc1` (stereo unspecified), with inactive: 25.2%; and `Cc1ccc(-n2c(SCc3cccc(F)c3)nc3[nH]ncc3c2=O)cc1C`, with inactive: -24.2%; and `N=C(N)c1ccccc1`, with inactive: 13.5%.
Then `Cc1ccc2ncc(C(=O)Nc3ccc(F)cc3F)c(=O)n2c1`, with inactive: -4.38%; and `COC(=O)c1ccc2c(=O)n(CCCCCC(=O)NCc3ccc(Cl)cc3)c(=O)[nH]c2c1`, with inactive: -33.3%.
